PubChem BioAssay AID1745845 (National Center for Advancing Translational Sciences (NCATS), 2022)
About 2,600 (0.72%) of roughly 360,000 compounds were called active. The shares of active, inactive and inconclusive entries below differ from those in the screen. Calls follow the shape of the dose curve; as a rule, active = well fitted inhibition curve with a large enough effect; inconclusive = small, poorly fitted or top-dose-only effect; inactive = no such curve, though single readings can be large or run the other way. Where the call is inconclusive, the potency comes from a doubtful curve fit.

Assay: Primary qHTS for Inhibitors of ATXN expression; also: nearly all actives have a fitted effect of over 55% in size
Settings: HEK-293 ATXN2-luciferase reporter, luminescence, 24 h; activity change, negative = inhibition: at 57 µM (top of the series)
How it was run: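 ATXN2-luciferase reporter cells (luciferase flanked by upstream and downstream ATXN2 gene portions) were treated 24 h at 37 °C with compounds at up to 57 uM. SteadyGlo luminescence gave expression; GF-AFC fluorescence gave viability.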
% is scaled to controls: 0 for no effect and ±100 for the full control effect; potency is read from the fitted curve at half-maximal effect; tags tell the direction and shape of the fitted curve.

SMILES | Potency | activity change, negative = inhibition
CCCCNc1c(-c2ccc(SC(C)CC)c(OC)c2)nc2ccc(C)cn12 (stereo unspecified) | inconclusive: 35.5 µM [inhibitor, single point] | –
COC(=O)c1cc(OC)c(OC)cc1NC(=O)C1CCC(=O)N1S(=O)(=O)c1ccc(C)cc1 (stereo unspecified) | – | inactive: 18%
COc1ccc(N2CCN(C(=O)c3cccc(S(=O)(=O)N4CCc5ccccc54)c3)CC2)cc1 | inconclusive: 28.2 µM [inhibitor, partial curve, poor fit] | –
CCOc1ccc(N2CC(c3nc4ccccc4n3CCOc3ccccc3)CC2=O)cc1 (stereo unspecified) | inconclusive: 39.8 µM [inhibitor, single point] | –
CCC(C)NCC(=O)Nc1ccc(-c2nc3cc(NC(=O)CNC(C)CC)ccc3o2)cc1 (stereo unspecified) | inconclusive: 28.2 µM [inhibitor, partial curve] | –
COc1ccc(C)cc1Nc1n[n+](-c2ccccc2)c(-c2ccc(OC)c(OC)c2OC)s1 | inconclusive: 35.5 µM [inhibitor, single point] | –
O=C(NCCNC1CCC(c2ccccc2)CC1)c1ccc(F)cc1 (stereo unspecified) | inconclusive: 42.3 µM [inhibitor, partial curve, poor fit] | –
O=C(c1ccco1)N1CCCC(c2nc(-c3ccc(S(=O)(=O)NCc4ccccc4)cc3)no2)C1 (stereo unspecified) | active: 28.2 µM | –
CN(C)CCN1C(=O)c2cccc3cc(N)cc(c23)C1=O | active: 5.44 µM | –
NSc1nc(N)c2nc(-c3ccccc3)c(-c3ccccc3)nc2n1 | inconclusive: 4.74 µM [inhibitor, partial curve, poor fit] | –
CCN(CC)c1ccc(NC(=S)NC(=O)C2CCC2)cc1 | – | inactive: -7.84%
O=C(Cc1ccc(Br)c2ccccc12)N/N=C/c1ccccn1 | – | inactive: -38% [at 11.3 µM]
Cc1ccc(-c2nnc(Nc3ccccc3)o2)cc1 | active: 22.4 µM | –
Cc1ccc(Sc2ccc(NC(=O)c3ccc(S(C)(=O)=O)cc3Cl)cc2)cc1 | inconclusive: 31.6 µM [inhibitor, partial curve, poor fit] | –
CC(Oc1ccccc1)C(=O)NNC(=O)c1ccccn1 (stereo unspecified) | inconclusive: 20 µM [inhibitor, partial curve] | –
CC(=O)OC[C@H]1O[C@@H](Oc2cc(O)cc3oc(-c4ccc(O)cc4)cc(=O)c23)[C@H](O[C@@H]2O[C@@H](C)[C@H](O)[C@@H](O)[C@H]2O)[C@@H](O)[C@@H]1O | – | inactive: 11.7%
CCOC(=O)c1cc2cc(-c3c(C(=O)OCC)oc4cc(O)cc(O)c4c3=O)ccc2o1 | inconclusive: 39.8 µM [inhibitor, single point] | –
COc1cc2c(cc1OC)CN(c1nc(CN3CCOCC3)nc3sc4c(c13)CCC(C)C4)CC2 (stereo unspecified) | – | inactive: -24.4%
COc1ccc(/C=C2/SC(=O)N(CCCCCC(=O)Nc3ccccc3C(=O)O)C2=S)cc1 | active: 10 µM | –
CC1CCN(c2cc(N3CCN(C)CC3)ccc2NC(=O)c2cc(C#N)c[nH]2)CC1 | inconclusive: 24.3 µM [inhibitor, partial curve] | –
O=C(O)CCCc1nc(-c2ccc(Cl)cc2)no1 | inconclusive: 10 µM [inhibitor, partial curve, poor fit] | –
O=C(c1ccco1)N1CCN(C(=O)c2cnn(-c3cccc(F)c3)c2C2CCNCC2)CC1 | inactive | –

SMILES | Potency | activity change, negative = inhibition
Cc1cccc(-c2nc(SCC(=O)N(C)c3ccccc3)c3c(=O)n(C)c(=O)n(C)c3n2)c1 | – | inactive: 1.14%
O=C(/C(=C/O)N=Nc1cccc(C(F)(F)F)c1)c1ccccc1 | inconclusive: 37.7 µM [inhibitor, single point] | –
COC(=O)c1ccc(CNC(=O)CN(CCC(C)C)S(=O)(=O)c2ccc3c(c2)OCCO3)cc1 | – | inactive: -8.99%
COc1ccc(/C([O-])=C(/C(=S)Nc2ccc(C)c(C)c2)n2c[n+](C)c3ccccc32)cc1OC | – | inactive: -20.7%
O=C(Nc1ccc(-c2csc(Nc3ccccc3)n2)cc1)c1cc([N+](=O)[O-])cc(C(F)(F)F)c1 | inconclusive: 22.4 µM [inhibitor, single point] | –
CCOC(=O)C1=C(Cc2ccc(F)cc2)C(=O)c2ccccc2C1=O | inconclusive: 39.8 µM [inhibitor, single point] | –
CC(C)(C)OC(=O)NCCCCCNC(=O)c1[nH]cnc1C(=O)NC1CCN(C(=O)OC(C)(C)C)CC1 | – | inactive: -25.3%
Cc1ccc(S(=O)(=O)NCC(=O)NCC(=O)N(C)Cc2ccc3ccccc3c2)cc1C | inconclusive: 23.8 µM [inhibitor, partial curve, poor fit] | –
Cc1ccc(-n2[nH]c(C)c(/C=N/Nc3ccc([N+](=O)[O-])cc3[N+](=O)[O-])c2=O)cc1 | inconclusive: 28.2 µM [inhibitor, single point] | –
O=C1/C(=C/c2cccnc2)CC/C1=C\c1cccnc1 | inconclusive: 35.5 µM [inhibitor, single point] | –
COc1cccc(-c2csc(N3CCN(C(=S)NCC(C)C)CC3)n2)c1 | inconclusive: 35.5 µM [inhibitor, single point] | –
c1ccc(OCCSc2nnc3sc4ccccc4n23)cc1 | inconclusive: 12.6 µM [inhibitor, single point] | –
CCOC(=O)N1CCN(c2cc(N)c([N+](=O)[O-])cc2F)CC1 | – | inactive: 5.89%
CCCCNC(=S)NNc1c(Cl)cc(Cl)cc1Cl | – | inactive: -4.9%
O=C(c1ccoc1)N1CCN(c2cc(-c3cccnc3)nc3cc(-c4cccc(Cl)c4)nn23)CC1 | inconclusive: 39.8 µM [inhibitor, single point] | –
C=CCn1c2ccccc2c2nnc(SCCCn3c(=O)[nH]c4ccccc43)nc21 | inconclusive: 28.2 µM [inhibitor, single point] | –
CCC(Sc1ccccn1)C(=O)Nc1cccc([N+](=O)[O-])c1 (stereo unspecified) | – | inconclusive: -40.9% [inhibitor]
CCOC(=O)c1ccc(N2C(=O)c3n[nH]c(-c4cccs4)c3C2c2cccc(O)c2)cc1 (stereo unspecified) | inconclusive: 39.8 µM [inhibitor, single point] | –
COCC(C)NC(=O)C1c2ccccc2Oc2ccccc21 (stereo unspecified) | – | inconclusive: -50.5% [inhibitor]
COc1ccc(CCN2CC(C(=O)N(C)Cc3c(C)n[nH]c3C)CCC2=O)cc1 (stereo unspecified) | – | inactive: 12.1%
COc1ccc(N(C)C(=O)c2oc(=O)c3ccccc3c2-c2ccc(C)cc2)c(OC)c1 | inconclusive: 31.6 µM [inhibitor, single point] | –
CCN(CC)CCN(C(=O)c1ccc(C(=O)c2ccccc2)cc1)c1nc2c(OC)cccc2s1 | – | inactive: -16%

SMILES | Potency | activity change, negative = inhibition
COc1ccc2cc(C(=O)Nc3ccc(S(N)(=O)=O)cc3)sc(=O)c2c1OC | inconclusive: 8.91 µM [inhibitor, partial curve, poor fit] | –
CC(C(=O)c1ccc(-c2ccccc2)cc1)[n+]1cccc(NC(=O)c2ccccc2)c1 (stereo unspecified) | inconclusive: 14.1 µM [inhibitor, partial curve, poor fit] | –
CN(CC(=O)Nc1ccc(Cl)cc1)C(=O)c1ccc(-n2cncn2)c([N+](=O)[O-])c1 | – | inactive: -13%
CC1CCN(S(=O)(=O)c2ccc3nc(Nc4cccc(F)c4)ccc3c2)CC1 | inconclusive: 28.2 µM [inhibitor, single point] | –
O=C(Nc1nc(-c2ccc(S(=O)(=O)N3CCCCCC3)cc2)cs1)c1ccccc1 | – | inactive: -18.7%
O=C(CCl)N1c2ccccc2SCC1c1ccccc1 (stereo unspecified) | inconclusive: 39.8 µM [inhibitor, single point] | –
S=C(NCCc1ccccc1)N1CCN(C(=S)NCCc2ccccc2)CC1 | – | inactive: -11.3%
CCC1(C)Cc2nc3[nH]c(=S)n(-c4ccc(C)cc4)c(=O)c3cc2CO1 (stereo unspecified) | – | inactive: -0.643%
CCCCNc1c(-c2cccc(-c3cc(C(C)=O)cs3)c2)nc2cc(C)ccn12 | active: 22.4 µM | –
COc1ccc(NC(=O)c2[nH]c(C)c(C(C)=O)c2C)cc1Cl | inconclusive: 39.8 µM [inhibitor, single point] | –
C=CCn1c(COc2ccccc2)nnc1SCC(=O)N/N=C/c1cc(Cl)ccc1O | inconclusive: 39.8 µM [inhibitor, single point] | –
O=C(/C=C/c1ccccc1)NC(NC(=S)Nc1cc(Cl)ccc1Cl)C(Cl)(Cl)Cl (stereo unspecified) | inconclusive: 14.1 µM [inhibitor, partial curve] | –
c1ccc2c(C3=NNC(=NC4CC4)SC3)c[nH]c2c1 | active: 17.8 µM | –
CCCCC[C@@H](C)N1C[C@H](COCc2ccccc2)Oc2cc(N3CC[C@H](O)C3)ccc2S1(=O)=O | inconclusive: 39.8 µM [inhibitor, single point] | –
O=C(NC1CCCCC1)Oc1cc2oc(=O)sc2cc1Br | – | inactive: -31.9%
O=C(Nc1ccc(NC(=O)C2CC2)cn1)c1ccccc1 | inconclusive: 25.1 µM [inhibitor, single point] | –
COc1ccccc1C(CCNCc1ccccc1)c1ccc(OC(C)C)cc1 (stereo unspecified) | active: 28.2 µM | –
[O-][n+]1onc2c1CCc1nnc(-c3ccccc3)cc1-2 | inconclusive: 39.8 µM [inhibitor, single point] | –
COc1cccc(NC(=O)c2oc3ccccc3c2NC(=O)c2ccc(OC(C)C)cc2)c1 | – | inactive: 10.8%
Cc1ccc(-n2[nH]c(C)c(N=Nc3cccc(-c4cccc(C(=O)O)c4)c3O)c2=O)cc1C | inconclusive: 14.1 µM [inhibitor, full curve] | –
CC(C)C[C@H](NC(=O)c1[nH]cnc1C(=O)N[C@@H](C)C(=O)OCc1ccccc1)C(=O)OC(C)(C)C | inconclusive: 39.8 µM [inhibitor, single point] | –
CCOc1cc(S(=O)(=O)Nc2ccc(CC)cc2)ccc1Cl | inconclusive: 39.8 µM [inhibitor, single point] | –
